# Measured values taken from PubChem BioAssay AID686979 (National Center for Advancing Translational Sciences (NCATS), 2013).
# “And” between values parts separate entries of the source, which are not always exact repeats. Identical values can stand only once. Out of some 420,000 compounds screened, about 50,000 (12%) were called active. The inconclusive results got no clear call from the source; some entries with a clear call stand among them for comparison. Calls follow the shape of the dose curve; as a rule, active = well fitted inhibition curve with a large enough effect; inconclusive = small, poorly fitted or top-dose-only effect; inactive = flat fitted curve, though single readings scatter. Potencies of inconclusive entries are left out as doubtful fits.
# Experiment: qHTS for Inhibitors of human tyrosyl-DNA phosphodiesterase 1 (TDP1): qHTS in cells in presence of CPT; also: nearly all actives have a fitted effect of over 55% in size
# Conditions: chicken DT40 Tdp1-/-;hTDP1 cells + 20 nM CPT, ATP luminescence, 48 h; activity change, negative = growth inhibition: at 46.2 µM (top of the series)
# In short: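 Chicken DT40 Tdp1-/- cells stably complemented with human TDP1 were seeded at 400 cells/well in medium containing 20 nM camptothecin, exposed to pin-transferred compounds, and grown at 37 °C for at least 48 hr. Viability was read as ATP luminescence.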
# % is scaled to controls: 0 for no effect and ±100 for the full control effect; potency is read from the fitted curve at half-maximal effect; tags tell the direction and shape of the fitted curve.
SMILES,Potency,"activity change, negative = growth inhibition"
CSCCC(NS(=O)(=O)c1ccc2c(c1)oc(=O)n2C)C(=O)NCc1ccc(Cl)cc1 (configuration not stated),inactive,–
C=CCOC(=O)N1CCC2CC1c1cc(-c3cccc(C)c3)ccc12 (configuration not stated),"inconclusive [inhibitor, single point]",–
Cc1ccc(C(=O)Nc2cc(-c3cn4cccnc4n3)ccc2C)cc1C,"inconclusive [inhibitor, single point]",–
O=C1C2C(c3ccccc3)CC=CC2[C@H](c2cccc([N+](=O)[O-])c2)N1Cc1ccccc1 (some centres not stated),active: 16.4 µM,–
CCOC(=O)N1CCN(S(=O)(=O)c2ccc(C(=O)Nc3nnc(C4CC4)o3)cc2)CC1,inactive,–
CCC(C)Sc1ccc(-c2nc3cc(C)ccn3c2NC2CCCCC2)cc1 (configuration not stated),active: 16.4 µM and active: 23.1 µM,–
CCC1Sc2ccccc2N(CC(=O)NCCC2=CCCCC2)C1=O (configuration not stated),"inconclusive [inhibitor, single point]",–
O=C(/C=C/c1c(F)cccc1Cl)Nc1ccncc1,"inconclusive [inhibitor, partial curve]",–
CCCn1c(N2CCN(CC(=O)NCc3cccs3)CC2)nc2ccccc21,"inconclusive [inhibitor, partial curve]",–
O=C(NCCN1CCC(n2c(=O)[nH]c3ccccc32)CC1)N1c2ccccc2Sc2ccccc21,"inconclusive [inhibitor, partial curve, poor fit]",–
COc1cccc(C2C(C(=O)Nc3nc4ccccc4s3)=C(C)NC3=C2C(=O)CC(C)(C)C3)c1OC (configuration not stated),"inconclusive [inhibitor, single point]",–
COCCn1cnc2c(c1=O)c1nc3ccccc3nc1n2/N=C/c1ccco1,"inconclusive [inhibitor, partial curve]",–
CC1Cc2cc(S(=O)(=O)N3CCC(C(=O)NCc4ccco4)CC3)ccc2N1C(=O)C1CCC1 (configuration not stated),"inconclusive [inhibitor, single point]",–
CNC(=O)NC(=O)C(C)N1CCN(C/C=C/c2ccccc2)CC1 (configuration not stated),inactive,–
Cc1cc(NC(=O)C(C)Sc2nnc(NCc3ccco3)s2)no1 (configuration not stated),inactive,–
CCc1ccc(O)c(N=Cc2ccccc2O)c1,"inconclusive [inhibitor, single point]",–
COc1ccc(NS(=O)(=O)c2ccc3c(c2)OCCO3)cc1OC,active: 7.31 µM,–
CS(=O)c1ccccc1COC(=O)Nc1cccc(Cl)c1 (configuration not stated),–,inconclusive: -32.5% [inhibitor]
COc1ccc2nc(NC(=O)c3ccc(NC(=O)C4CCCO4)cc3)sc2c1 (configuration not stated),"inconclusive [inhibitor, partial curve]",–

SMILES,Potency,"activity change, negative = growth inhibition"
COc1ccc(C(=O)NNC(=O)CSc2nnc(C3CC3)n2C)cc1,inactive,–
CC(C)c1c(C(=O)N/N=C/c2ccoc2)nnn1-c1nonc1N,inactive,–
CCCS(=O)(=O)N1CCC(C(=O)NCCN2CCC(Cc3ccccc3)CC2)CC1,inactive,–
O=S(=O)(c1ccc(NC(=S)Nc2ccc(OC(F)F)cc2)cc1)N1CCOCC1,"inconclusive [inhibitor, partial curve]",–
COc1cccc(-c2cc3nc(-c4ccccc4)cc(=O)n3[nH]2)c1,active: 2.59 µM,–
Cc1ccc2cc(NC(=O)Cc3ccccc3)ccc2n1,–,inconclusive: -31.2% [inhibitor]
CCc1ccccc1S(=O)(=O)Cc1ccc(C(=O)NCCc2ccc(Cl)cc2)o1,"inconclusive [inhibitor, single point]",–
O=C(Nc1cc(-c2cccc(Cl)c2)nn1-c1ccccc1)c1ccccc1F,active: 16.4 µM,–
COc1ccccc1C(CNC(=O)c1cccc(S(=O)(=O)N2c3ccccc3CC2C)c1)N(C)C (configuration not stated),"inconclusive [inhibitor, single point]",–
CN(C(=O)c1ccco1)c1nnc(C23CC4CC(CC(C4)C2)C3)s1,"inconclusive [inhibitor, single point]",–
O=C(Cc1ccc(Cl)cc1)NCCc1csc2nc(-c3ccccc3F)nn12,inactive,–
COc1ccc(C(=O)NCC(=O)N/N=C/C(C)=C/c2ccco2)cc1OC,"inconclusive [inhibitor, partial curve]",–
Cc1cccc(NC(=S)NC(=O)/C=C/c2ccco2)n1,"inconclusive [inhibitor, single point]",–
COc1ccc(-c2ccc(C)cc2)cc1[C@H]1[C@H]2C=CC[C@@H](C)[C@@H]2C(=O)N1Cc1ccccc1,"inconclusive [inhibitor, single point]",–
CC1CC(C)CN(C(=O)Nc2ccccc2F)C1 (configuration not stated),inactive,–
CN(C)CCOc1ccc(-c2c(-c3ccccc3)sc3ccccc23)cc1,active: 10.3 µM,–
CC1(Oc2cccc(F)c2)CCN(Cc2ccc3ccccc3c2)C1 (configuration not stated),"inconclusive [inhibitor, single point]",–
CCOc1ncccc1C(=O)OCc1csc(CC(=O)Nc2ccccc2C)n1,–,inconclusive: -11.8% [inhibitor]
